In the supplement of paper PMC12217912:
The list shows a part of the results. Sequences were assembled here from the parent chain. Values near 0.05 are background.

B1: TEV protease; numbered along this chain (parent)
chain: MGESLFKGPRDYNPISSSICHLTNESDGHTTSLYGIGFGPFIITNKHLFRRNNGTLVVQSLHGVFKVKDTTTLQQHLVDGRDMIIIRMPKDFPPFPQKLKFREPQREERICLVTTNFQTKSMSSMVSDTSCTFPSGDGIFWKHWIQTKDGQCGSPLVSTRDGFIVGIHSASNFTNTNNYFTSVPKNFMELLTNQEAQQWVSGWRLNADSVLWGGHKVFMVKPEEPFQPVKEATQL

Variants of: B1
Test: raw area under fraction-flipped curve 0-4 h after induction (AUC4h, not background-subtracted), DNA-recorder readout of cleavage of the substrate (dimensionless); higher = more cleavage of the substrate by the protease variant
Details: temperature: 34 °C; time window: 0-4 h after rhamnose induction
Procedure: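 In vivo DNA recorder in E. coli TOP10(DE3) ΔrhaA at 34 °C. Each TEVp single-site mutant (parent TEVp 0) is paired with a single-site variant of the 7-mer TEVs (canonical ENLYFQ|S). The substrate sits between flexible linkers in a Bxb1-sfGFP-TEVs-SsrA fusion, so cleavage stabilises Bxb1 and speeds flipping of a recombination array, read by NGS. The value is the raw area under the fraction-flipped curve over 0-4 h after rhamnose induction (AUC4h), with ≥20 reads per time point. It is not background-subtracted; inactive controls average about 0.047.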
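Also: Bxb1 expression induced with 0.2% (w/v) L-rhamnose at OD600 near 0.5, cultures sampled hourly, flipped fraction per protease–substrate barcode pair counted by paired-end Illumina sequencing.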

Row | Variant | area with substrate ENLYFDS | area with substrate ENLYFFS | area with substrate ENLYFGS | area with substrate ENLYFIS | area with substrate ENLYFMS | area with substrate ENLYFNS | area with substrate ENLYFPS | area with substrate ENLYFSS | area with substrate ENLYFTS | area with substrate ENLYFVS
1 | D149I | 0.0663 | 0.0478 | 0.0596 | 0.0567 | 0.0643 | 0.055 | 0.0584 | 0.0539 | 0.0517 | 0.0598
2 | G153T | 0.0392 |  |  | 0.0492 | 0.0479 |  | 0.0407 |  | 0.0475 | 
3 | F163K | 0.0643 |  |  | 0.0433 |  |  | 0.0608 |  | 0.077 | 
4 | G166K | 0.0532 |  |  | 0.0522 |  |  | 0.0448 |  |  | 
5 | A170Q | 0.0614 |  |  | 0.0593 |  |  | 0.0366 |  |  | 
6 | T174G | 0.0582 | 0.0612 | 0.058 | 0.0474 |  | 0.0692 | 0.0686 | 0.0702 | 0.0523 | 
7 | N177M | 0.0652 |  |  | 0.0682 | 0.0475 | 0.0409 | 0.0634 | 0.0641 |  | 0.0626
8 | N178R | 0.0672 |  | 0.0593 | 0.0051 | 0.0573 | 0.0862 | 0.0679 |  |  | 
9 | R204P | 0.0945 |  |  |  | 0.0609 | 0.071 |  |  |  | 
10 | S209K | 0.0748 |  | 0.0323 | 0.0488 | 0.0671 |  |  |  | 0.0662 | 
11 | S209N | 0.0429 | 0.0708 |  | 0.0564 | 0.0909 | 0.0682 |  |  | 0.0355 | 
12 | S209R | 0.0369 |  |  | 0.0531 | 0.0539 | 0.0514 | 0.0441 |  | 0.0541 | 0.0577
13 | W212S | 0.0674 |  |  | 0.0501 |  |  | 0.0607 | 0.0887 |  | 0.0436
14 | H215K | 0.0705 | 0.0667 |  | 0.0564 | 0.0487 | 0.0619 | 0.0573 |  | 0.0564 | 0.0549
15 | F226V | 0.0517 | 0.0446 |  |  |  |  |  | 0.0691 | 0.0621 | 
16 | P228R | 0.0556 | 0.055 |  | 0.0491 |  | 0.0537 | 0.071 | 0.0577 | 0.0629 | 0.0571
17 | G2N |  |  |  |  | 0.0758 |  |  |  |  | 
18 | L5T |  |  | 0.065 |  | 0.0684 | 0.062 | 0.0607 | 0.0579 | 0.116 | 0.0354
19 | F6A |  |  |  | 0.0375 | 0.054 | 0.0459 | 0.0986 |  | 0.0832 | 0.0712
20 | G8L |  | 0.0556 |  | 0.0675 | 0.0596 |  | 0.0688 |  |  | 
21 | R51N |  |  |  |  |  | 0.074 |  |  |  | 

Row | Variant | area with substrate ENLYFDS | area with substrate ENLYFFS | area with substrate ENLYFGS | area with substrate ENLYFIS | area with substrate ENLYFMS | area with substrate ENLYFNS | area with substrate ENLYFPS | area with substrate ENLYFSS | area with substrate ENLYFTS | area with substrate ENLYFVS
22 | V57I |  | 0.0675 | 0.0621 | 0.0719 | 0.0585 | 0.0668 | 0.0619 |  | 0.0636 | 0.0451
23 | V58M |  | 0.0762 | 0.0533 |  |  |  |  | 0.0668 | 0.0571 | 
24 | S60G |  |  |  | 0.0624 | 0.0862 |  | 0.0622 | 0.0669 | 0.0509 | 
25 | L61F |  |  |  |  |  |  | 0.0633 |  |  | 
26 | F65I |  | 0.0634 |  | 0.0591 | 0.0711 |  | 0.0251 |  | 0.0957 | 0.0655
27 | D69F |  | 0.0848 |  | 0.0601 | 0.0682 |  |  |  | 0.0505 | 
28 | G80L |  |  |  | 0.0476 | 0.0624 | 0.0732 | 0.0627 |  |  | 0.0617
29 | D82M |  | 0.0713 |  | 0.0456 |  | 0.0715 |  | 0.0356 | 0.0451 | 
30 | M83L |  | 0.0627 |  |  | 0.0602 | 0.0429 | 0.0584 |  |  | 0.102
31 | I85H |  | 0.054 | 0.0515 | 0.0518 | 0.0501 |  | 0.0538 |  |  | 
32 | M88L |  |  |  |  |  |  | 0.0529 |  | 0.0542 | 0.0469
33 | K90A |  | 0.0727 |  |  |  |  |  |  |  | 
34 | P93W |  | 0.0681 |  | 0.0609 |  | 0.0617 | 0.0583 |  |  | 
35 | Q97T |  | 0.0653 |  | 0.0545 |  |  | 0.0575 |  | 0.0431 | 
36 | L99E |  |  |  | 0.0566 |  |  |  |  | 0.0517 | 
37 | L99I |  | 0.0678 |  | 0.083 | 0.0634 | 0.0591 |  |  |  | 
38 | L99M |  | 0.0657 | 0.0571 | 0.0455 | 0.0624 |  | 0.0792 |  | 0.0572 | 
39 | R102E |  | 0.0488 |  |  | 0.0435 |  | 0.0525 |  | 0.0499 | 0.0313
40 | E103P |  |  |  | 0.0619 | 0.0648 |  | 0.0402 | 0.0815 |  | 0.012
41 | R106N |  | 0.0536 |  | 0.0605 | 0.0806 | 0.0621 | 0.0699 |  | 0.0692 | 
42 | E108G |  | 0.0697 |  | 0.0422 |  |  | 0.0552 |  | 0.06 | 

Same assay, conditions: temperature: 34 °C; time window: 0-4 h after rhamnose induction

Row | Variant | area with substrate ENLYFYS | area with substrate ENLYFES | area with substrate ENLYFKS | area with substrate ENLYFLS | area with substrate ENLYFRS | area with substrate ENLYFWS | area with substrate ENLYFHS
43 | D149I | 0.05 |  |  |  |  |  | 
44 | G153T | 0.0417 | 0.0626 | 0.0376 | 0.0435 | 0.0445 |  | 
45 | F163K |  | 0.0665 |  | 0.0746 |  |  | 
46 | A170Q |  | 0.0635 |  |  |  |  | 
47 | T174G |  | 0.0634 |  |  | 0.0362 | 0.0721 | 
48 | N177M | 0.0604 |  | 0.0573 |  |  | 0.072 | 
49 | N178R |  | 0.0542 |  |  |  |  | 
50 | S209K | 0.0484 |  |  |  | 0.0826 |  | 
51 | S209N | 0.07 | 0.0722 |  |  |  | 0.0395 | 0.0627
52 | S209R |  |  |  | 0.0559 | 0.0475 |  | 0.0669
53 | W212S |  |  | 0.0466 |  |  |  | 
54 | H215K | 0.0315 | 0.0625 | 0.0881 |  | 0.0566 | 0.0533 | 0.0721
55 | F226V | 0.0532 |  | 0.056 |  |  | 0.0443 | 
56 | P228R | 0.069 | 0.0888 | 0.0548 |  |  | 0.0556 | 0.0571
57 | G2N | 0.0349 | 0.0339 |  |  |  |  | 
58 | L5T |  | 0.0503 |  |  | 0.0567 | 0.0528 | 0.0699
59 | F6A |  | 0.0645 |  |  | 0.067 | 0.0572 | 
60 | G8L |  | 0.0492 |  |  |  |  | 
61 | R51N |  | 0.0737 | 0.0612 |  |  |  | 
62 | V57I |  | 0.0601 | 0.0521 | 0.0663 | 0.0631 | 0.0582 | 0.0458
63 | V58M |  | 0.0698 |  |  |  |  | 0.0353

Row | Variant | area with substrate ENLYFYS | area with substrate ENLYFES | area with substrate ENLYFKS | area with substrate ENLYFLS | area with substrate ENLYFRS | area with substrate ENLYFWS | area with substrate ENLYFHS
64 | S60G |  | 0.0606 | 0.051 |  |  |  | 
65 | L61F |  | 0.0561 |  |  |  | 0.0695 | 
66 | F65I |  | 0.0635 | 0.0628 | 0.0558 | 0.0601 | 0.0517 | 0.062
67 | D69F | 0.059 | 0.0601 |  |  |  | 0.0542 | 
68 | G80L |  | 0.0671 |  |  |  | 0.053 | 0.0633
69 | D82M |  | 0.0515 |  | 0.0588 |  | 0.0451 | 
70 | M83L | 0.0506 | 0.0665 |  | 0.0735 | 0.0539 |  | 0.0512
71 | I85H |  | 0.0519 |  | 0.0561 |  |  | 
72 | M88L |  | 0.0537 | 0.0666 |  |  | 0.0431 | 0.0585
73 | K90A |  | 0.0771 | 0.0911 |  | 0.0592 |  | 0.0694
74 | P93K |  | 0.085 |  |  |  |  | 
75 | P93W |  | 0.0568 | 0.0648 |  | 0.0603 |  | 0.0416
76 | Q97T |  | 0.069 |  |  | 0.0538 |  | 
77 | L99E | 0.0809 | 0.057 |  |  |  | 0.053 | 
78 | L99I |  | 0.0254 |  |  | 0.0595 |  | 0.0474
79 | L99M | 0.0497 | 0.0521 | 0.0572 |  |  | 0.0611 | 
80 | R102E |  | 0.0489 |  | 0.0302 |  |  | 0.0454
81 | E103P |  | 0.0749 |  |  |  |  | 
82 | R106N |  | 0.0701 | 0.0549 |  | 0.0646 |  | 0.0565
83 | E108G |  | 0.057 |  |  |  |  | 
